# The whole screen tested about 410,000 compounds, of which about 6,400 (1.6%) were called active. Inconclusive means that the source gave no clear call. Such entries were picked first, then a sample of the others. Calls come from the whole dose curve; as a rule, active = well fitted inhibition curve with a large enough effect; inconclusive = small, poorly fitted or top-dose-only effect; inactive = no such curve, though single readings can be large or run the other way. No potency is given beside an inconclusive call; the fits are too rough.
# Target: Glucagon-like peptide 1 receptor (Homo sapiens) (UniProt P43220)
# Test: qHTS of GLP-1 Receptor Inverse Agonists (Inhibition Mode); note: nearly all actives have a fitted effect of over 55% in size
# Conditions: HEK293 GLP-1R CRE-luciferase, luminescence, 24 h, GLP-1R form is constitutively active; series mostly up to 38.3 µM
# Procedure, shortened: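 GLP-1R inverse agonism mode: basal reporter luminescence in engineered HEK293 cells measured after one day of compound exposure at 37 deg C, with a 12 min room-temperature detection step.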
# Potency is the fitted concentration of half-maximal effect; tags give direction and shape of the fitted curve.
# Sequence of UniProt P43220 (P43220 whole entry, looked up): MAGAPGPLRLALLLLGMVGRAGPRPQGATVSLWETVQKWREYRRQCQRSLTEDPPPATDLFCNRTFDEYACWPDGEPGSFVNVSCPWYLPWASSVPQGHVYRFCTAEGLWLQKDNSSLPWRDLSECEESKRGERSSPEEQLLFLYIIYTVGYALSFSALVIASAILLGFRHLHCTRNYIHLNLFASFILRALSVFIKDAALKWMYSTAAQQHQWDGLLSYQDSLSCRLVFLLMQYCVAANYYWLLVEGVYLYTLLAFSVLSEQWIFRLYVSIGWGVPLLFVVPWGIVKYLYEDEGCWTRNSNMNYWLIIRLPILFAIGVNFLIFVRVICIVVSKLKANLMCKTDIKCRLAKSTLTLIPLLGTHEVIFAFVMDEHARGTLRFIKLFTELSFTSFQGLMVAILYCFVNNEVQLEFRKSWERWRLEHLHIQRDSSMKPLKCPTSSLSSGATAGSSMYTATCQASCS
row,Structure (SMILES),Potency
1,Cc1ccccc1C(=O)NC(=S)N(C)C1CCCCC1,"inconclusive [inhibitor, single point]"
2,C#Cc1ccc([C@H]2C=C(C(=O)OCC=C)O[C@@H](OCc3ccc(CO)cc3)C2)cc1,"inconclusive [inhibitor, single point]"
3,Cc1cc(C)nc(Sc2ncnc(N)c2[N+](=O)[O-])n1,"inconclusive [inhibitor, single point]"
4,COc1cc(OC)c(C(=O)C=Cc2ccc(OC)c(OC)c2)c(OC)c1,"inconclusive [inhibitor, single point]"
5,FC(F)(F)c1cc(CO[C@@H]2CCCN[C@@H]2c2ccccc2)cc(C(F)(F)F)c1,"inconclusive [inhibitor, single point]"
6,CCCn1c(C(C)Nc2nc(C)cs2)nc2cc(Cl)c(Cl)cc21 (configuration not stated),"inconclusive [inhibitor, single point]"
7,CC(C)(C)OC(=O)NCc1ccc(CNC(=O)c2nc[nH]c2C(=O)N2CCN(C(=O)OC(C)(C)C)CC2)cc1,"inconclusive [inhibitor, partial curve, poor fit]"
8,COc1ccc(CNCC(=O)Nc2ccccc2-n2cccc2)cc1,"inconclusive [inhibitor, partial curve, poor fit]"
9,O=C(CCCCn1c(=O)c2ccccc2n(Cc2ccc(F)cc2)c1=O)NCc1ccco1,"inconclusive [inhibitor, partial curve, poor fit]"
10,COc1ccc(CNS(=O)(=O)c2cccc(S(=O)(=O)N3CCOCC3)c2)cc1,inactive
11,Cc1ccc(CSc2oc(-c3ccco3)nc2S(=O)(=O)c2ccc(C)cc2)cc1,"inconclusive [inhibitor, single point]"
12,COc1cccc(Cn2c(=O)c3ccccc3n3nc(C)cc23)c1,"inconclusive [inhibitor, single point]"
13,CC1CCCCC1NC(=O)CN1C(=O)NC(C)(c2ccc(OC(F)F)cc2)C1=O (configuration not stated),inactive
14,Cc1cc(NC(=O)c2cccs2)ncc1NC(=O)C(C)(C)C,"inconclusive [inhibitor, single point]"
15,CC(=O)N1N=C(c2ccncc2)OC1(Cc1ccccc1)Cc1ccccc1,"inconclusive [inhibitor, partial curve, poor fit]"
16,CCOC(=O)C1=C(N)Oc2c(oc(CO)cc2=O)C1c1ccc(Cl)cc1 (configuration not stated),"inconclusive [inhibitor, partial curve, poor fit]"
17,CCCN(CCC)C(=O)Cn1c(=O)n(-c2ccccc2)c(=O)c2c3c(sc21)CCCC3,"inconclusive [inhibitor, full curve]"
18,O=C(CSc1nnc(SCc2ccc(Cl)cc2)s1)N/N=C/c1ccc(C(=O)O)cc1,"inconclusive [inhibitor, full curve]"
19,Cc1cc(Br)cc(C)c1OCCCCN(C)C,"inconclusive [inhibitor, partial curve, poor fit]"
20,Cc1ccc(S(=O)(=O)N(CCCN(C)C)Cc2ccc3c(c2)OCO3)cc1,"inconclusive [inhibitor, single point]"
21,OC[C@H]1O[C@H](c2nc(-c3nc(-c4cccc(-n5cccc5)c4)no3)cs2)C[C@@H]1O,"inconclusive [inhibitor, single point]"

row,Structure (SMILES),Potency
1,O=S(=O)(c1ccccc1C(F)(F)F)N1CCC(n2cnc3ccccc32)CC1,"inconclusive [inhibitor, partial curve, poor fit]"
2,CCSc1nc2ccccc2n1Cc1ccccc1F,"inconclusive [inhibitor, single point]"
3,CC(NC(=O)c1ccccc1F)c1nnc(SCC(=O)N2CCN(c3ccccc3)CC2)n1C (configuration not stated),inactive
4,O=C(Nc1ccccc1Br)c1ccccc1-c1ccccc1,"inconclusive [inhibitor, partial curve, poor fit]"
5,COc1cc(F)ccc1-c1csc(C(NC(C)=O)c2ccc(F)c(F)c2)n1 (configuration not stated),"inconclusive [inhibitor, single point]"
6,COc1ccc(CCN(Cc2nc3ccccc3c(=O)[nH]2)C(=O)C2CC2)cc1,"inconclusive [inhibitor, partial curve, poor fit]"
7,Cc1ccc(S(=O)(=O)Nc2cc(C)cc(CCNC=O)c2C)cc1,inactive
8,O=C(NCc1ccccn1)C1CC(c2ccc(Cl)c(Cl)c2)=NO1 (configuration not stated),"inconclusive [inhibitor, single point]"
9,O=C(NCCC1=CCCCC1)c1ccc2c(c1)N(Cc1ccccc1)C(=O)CS2,"inconclusive [inhibitor, partial curve, poor fit]"
10,C=C(C)COc1ccc(-c2ncncc2-c2ccccc2OC)c(O)c1,"inconclusive [inhibitor, partial curve, poor fit]"
11,Cc1ccc(C)c(OCC(=O)NCC2COc3ccccc3O2)c1 (configuration not stated),"inconclusive [inhibitor, single point]"
12,COc1cccc2cc(C(C)N(CCCN3CCOCC3)C(=S)Nc3c(C)cccc3C)oc12 (configuration not stated),"inconclusive [inhibitor, partial curve, poor fit]"
13,Cc1cc(=O)[nH]c(Nc2cccc(C(F)(F)F)c2)n1,"inconclusive [inhibitor, partial curve, poor fit]"
14,O=c1c2ccccc2ncn1CCCSc1ccccc1,"inconclusive [inhibitor, single point]"
15,COC(=O)c1cc2c(ccn2-c2ccc(F)cc2)n1Cc1ccc(OC)cc1,"inconclusive [inhibitor, single point]"
16,C=Cc1ccc(Cn2c(C)c(C(=O)NCc3cccc([N+](=O)[O-])c3)sc2=O)cc1,"inconclusive [inhibitor, single point]"
17,Cc1cc2cc(C(c3nnnn3Cc3ccco3)N3CCc4ccccc43)c(=O)[nH]c2cc1C (configuration not stated),"inconclusive [inhibitor, partial curve, poor fit]"
18,CNC(=O)/C(C#N)=C/c1cccc(Oc2ccccc2)c1,"inconclusive [inhibitor, full curve, poor fit]"
19,CCc1ccccc1N(CC(=O)NC1CCCCC1)C(=O)CCCC(=O)Nc1ccccn1,inactive
20,CCCCN(CCCNc1ncnc2nc[nH]c12)c1ccccc1,active: 10 µM
21,Cn1c(C(=O)NCCN2CCOCC2)cc2sccc21,inactive

row,Structure (SMILES),Potency
1,N#Cc1ccsc1NC(=O)CN1CCN(c2ccc(O)cc2)CC1,"inconclusive [inhibitor, partial curve, poor fit]"
2,Cc1ccc(C(=O)Nc2cccc(O)c2)cc1S(=O)(=O)N1CCCCCC1,"inconclusive [inhibitor, partial curve]"
3,COC(=O)C1=C(N)Oc2cc(N(C)C)ccc2C1c1ccccc1OC (configuration not stated),active: 6.31 µM
4,O=C(OC[C@@H]1CCCN2CCCC[C@H]12)c1cc2ccccc2oc1=O,inactive
5,Cc1cc(NC(=O)COC(=O)c2cc(S(=O)(=O)N(C)C)ccc2Cl)no1,"inconclusive [inhibitor, partial curve, poor fit]"
6,O=C(O)c1ccccc1NC1CCCCC1NS(=O)(=O)c1ccccc1 (configuration not stated),"inconclusive [inhibitor, single point]"
7,Cc1nc(-c2ccc(Cl)cc2)sc1CCNC(=O)Cc1ccc(F)cc1,"inconclusive [inhibitor, single point]"
8,C=C(C)COc1ccc(-c2[nH]ncc2-c2ccc(OC)cc2)c(O)c1,active: 11.2 µM
9,O=C(N/N=C/c1c(F)cccc1Cl)C(=O)N1CCCCCC1,inactive
10,Cc1cc(=O)n2cccc(O)c2n1,"inconclusive [inhibitor, partial curve, poor fit]"
11,COc1ccc(C)cc1NC(=O)Cn1c(=O)cc(C)c2c(C)nn(C)c21,"inconclusive [inhibitor, full curve, poor fit]"
12,CC1=C(C(=O)N(C)C)CC(CC(=O)NC(c2ccccc2)c2ccccc2)C(=O)N1Cc1ccc(C(C)(C)C)cc1 (configuration not stated),"inconclusive [inhibitor, single point]"
13,CCCCCCC(C)n1[nH]c(=O)c2c(C)cc(C)nc21 (configuration not stated),active: 10 µM
14,Oc1[nH]c2ccccc2c1N=NC(=S)NCCc1ccccc1,"inconclusive [inhibitor, single point]"
15,Cc1ccc2c(c1)C(c1ccccc1)N(C(=O)c1ccc3c(c1)OCO3)CC(=O)N2 (configuration not stated),"inconclusive [inhibitor, single point]"
16,CN1/C(=C/C=C/c2n(C)c3cc([N+](=O)[O-])c([N+](=O)[O-])cc3[n+]2C)C(C)(C)c2ccccc21,"inconclusive [inhibitor, partial curve, poor fit]"
17,CCN(CC)CCCCCCCCOC(=O)c1cc(OC)c(OC)c(OC)c1,"inconclusive [inhibitor, partial curve, poor fit]"
18,CC(=O)NNc1nc(-c2ccc(C)cc2)cs1,"inconclusive [inhibitor, single point]"
19,CN(C)c1ncnc2c1ncn2[C@H]1CN(Cc2ccc(-c3ccccc3)cc2)C[C@@H](CO)O1,"inconclusive [inhibitor, single point]"
20,Cc1ccc(N2NC(C)(c3cccs3)NC2=S)cc1 (configuration not stated),"inconclusive [inhibitor, full curve, poor fit]"
